PubChem BioAssay AID1159614 (National Center for Advancing Translational Sciences (NCATS), 2016)
Among all 45,000 compounds or so, about 65 (0.1%) were called active. The call rests on the fitted dose curve; in most records, active means well fitted activation curve with a large enough effect; inconclusive means small, poorly fitted or top-dose-only effect; inactive means no such curve, though single readings can be large or run the other way. The list shows a part of the results.

These molecules were tested against Galactocerebrosidase (Homo sapiens) (UniProt P54803) (assay: A Novel Cell-Based Assay to Identify Small Molecules for B -Galactocerebrosidase). Conditions: 145M-Twi-hGALC-G270D cells, HMU-beta-Gal fluorescence, 48 h; series mostly up to 57.5 µM; activation: at the top concentration.
Sequence of UniProt P54803 (P54803 whole entry, looked up): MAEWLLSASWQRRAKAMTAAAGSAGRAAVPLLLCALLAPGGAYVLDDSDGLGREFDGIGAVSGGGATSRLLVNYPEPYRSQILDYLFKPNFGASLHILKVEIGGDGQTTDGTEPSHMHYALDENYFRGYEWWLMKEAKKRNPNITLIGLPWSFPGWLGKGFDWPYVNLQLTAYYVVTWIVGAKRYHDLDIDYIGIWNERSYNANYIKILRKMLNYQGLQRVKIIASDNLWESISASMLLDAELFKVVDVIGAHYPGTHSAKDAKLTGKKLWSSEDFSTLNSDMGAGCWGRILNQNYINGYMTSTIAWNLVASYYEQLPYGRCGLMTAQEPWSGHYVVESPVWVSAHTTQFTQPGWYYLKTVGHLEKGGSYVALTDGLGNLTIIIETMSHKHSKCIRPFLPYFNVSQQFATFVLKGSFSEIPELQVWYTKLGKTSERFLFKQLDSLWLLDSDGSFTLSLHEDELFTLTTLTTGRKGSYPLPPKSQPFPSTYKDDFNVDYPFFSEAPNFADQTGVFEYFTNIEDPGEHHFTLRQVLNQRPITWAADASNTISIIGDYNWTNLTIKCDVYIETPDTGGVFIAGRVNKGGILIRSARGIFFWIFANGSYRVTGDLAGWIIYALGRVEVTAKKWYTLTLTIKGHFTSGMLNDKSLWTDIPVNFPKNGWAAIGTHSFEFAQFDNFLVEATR
Summary of the method: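 qHTS, 1536-well; 145M-Twi-hGALC-G270D cells (WT line also made) in DMEM/F12 + 10% FBS; compound incubation on live cells; HMU-β-gal 0.1 mM final, pH 5.2, NaTC; carbonate stop; fluorescence increase = enhanced residual activity.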
Further: 0% is about no effect; nearly all actives have a fitted effect of over 65% in size.

activation, inactive:
COC(=O)c1cc2occc2n1Cc1nc(-c2ccc(Cl)cc2)oc1C -1.94%
Cc1ccc(NC(=O)Cn2cc(S(=O)(=O)Cc3ccccc3)c3ccccc32)cc1C -7.97%
Cc1ccc(-n2nc(C(=O)N(C)c3ccccc3Cl)c3c4ccccc4n(C)c3c2=O)cc1 -24.3%
COc1cc2[nH]c(=O)n(CCCC(=O)N(C)Cc3ccccc3)c(=O)c2cc1OC -18.6%
CCc1ccccc1NC(=O)Cn1nc(C)c2nn(-c3ccc(Cl)cc3)c(C)c2c1=O -12.2%
CCOC(=O)c1ccc(N2C(=O)c3n[nH]c(C)c3C2c2ccc(CC)cc2)cc1 (configuration not stated) -5.06%
CCOCCCNC(=O)CN1C(=O)CCn2nc(-c3cccn3C)cc21 -23%
COc1ccc(CN(CCN(C)C)c2ncccn2)cc1 -17.8%
COc1ccc(NC(=O)CN2C(=O)C(c3ccccc3)=NC23CCC(C)CC3)cc1Cl (configuration not stated) -11.7%
CN(C)S(=O)(=O)N(CC(=O)NCCSCc1ccc(Cl)cc1Cl)c1ccccc1 -6.15%
CCOC(=O)C(Cc1ccccc1)NC(=O)Cn1nnc(-c2ccc(C)cc2)n1 (configuration not stated) -9.48%
CSc1ccc(CCNC(=O)C2CCCN(S(=O)(=O)N(C)c3ccc(F)cc3)C2)cc1 (configuration not stated) -21%
COc1ccc(C(C)C)cc1S(=O)(=O)NCCc1c(C)[nH]c2c(Cl)cccc12 -36.2%
C[C@H](NC(=O)OC(C)(C)C)c1nnc(SCc2ccc(Cl)cc2Cl)o1 -10.5%
Cc1cccn2c(=O)cc(COc3cccc(NC(=O)Nc4cccc(Cl)c4)c3)nc12 15.3%
CC(C)c1ccc(NC(=O)c2cc(S(=O)(=O)NCCc3ccccc3)ccc2F)cc1 -3.6%
COc1ccc(-n2ccnc(NCCc3ccc(S(N)(=O)=O)cc3)c2=O)cc1Cl -3.47%
O=C1Cc2cc(S(=O)(=O)Nc3cccc(C(F)(F)F)c3)cc3c2N1CCC3 -21.5%
Cc1cc(OC(C)C(=O)N(Cc2ccco2)Cc2ccco2)cc(C)c1Cl (configuration not stated) -1.18%
CC(C)c1ccc(NC(=O)[C@H]2O[C@@H]3OC(C)(C)O[C@@H]3[C@H]3OC(C)(C)O[C@H]32)cc1 -10.3%
CCN(CC)c1ccc2nc3c(=O)n(C)c(=O)n(C)c3nc2c1 -17.3%
Cc1nn(CC(=O)N2CCN(c3ccccc3F)CC2)c(=O)c2cccn12 -10.8%
CCOc1ccc(-c2nnc(SCC(=O)NC3CCCCC3)nc2-c2ccc(OCC)c(OC)c2)cc1OC -21.4%
CCc1ccc2occ(CC(=O)Nc3nnc(SC)s3)c2c1 -13.9%
COc1ccc(CNC(=O)CCn2c(=O)c3cccn3c3ccc(F)cc32)cc1OC -10.4%
CCN1C(=O)c2ccccc2S(=O)(=O)c2ccc(C(=O)NCc3ccc(C)cc3)cc21 -7.97%
CC(C)c1ccc(NC(=O)C2CCC(CNS(=O)(=O)c3ccc4c(c3)CCCC(=O)N4)CC2)cc1 (configuration not stated) -0.185%
CCn1nc(C)c(CCN(C)C(=O)Nc2cc(Cl)c(OC)cc2OC)c1C -12.5%
CCN(Cc1ccccc1)C(=O)Cn1c(=O)cc(C)c2c(C)nn(-c3cccc(F)c3)c21 -6.45%
CC(C)c1nn2c(=O)cc(COC(=O)c3cccc(NC(=O)CCc4ccccc4)c3)nc2s1 -6.25%
O=C(CSc1oc(-c2ccc(F)cc2)nc1S(=O)(=O)c1ccccc1)c1ccc(Cl)cc1 -12.6%
CCc1ccc2nc(N(Cc3cccnc3)C(=O)Cc3ccccc3)sc2c1 -25.9%
COc1ccc(Cc2c(C)nn(-c3nc(C)c(C(=O)Nc4cccc(C(C)=O)c4)s3)c2C)cc1 -8.67%
COc1ccc(-c2ccc(=O)n(CC(=O)Nc3ccc(Br)cc3F)n2)cc1 -6%
CCOC(=O)c1[nH]c(C)c(CCC(=O)N2CCN(c3ccc(Cl)cc3)CC2)c1C -9.52%
CCS(=O)(=O)c1nc(S(=O)(=O)c2ccc(Cl)cc2)c(NCc2ccc(Cl)cc2)s1 -8.8%
O=C(O)c1ccc(Nc2ncnc3scc(-c4ccccc4)c23)cc1 8.77%
Cn1c(=O)c2c(-c3ccccc3)n(-c3cccc(C#N)c3)cc2n(C)c1=O -17.4%
COC(=O)c1cc(OC)c(OC)cc1NC(=O)c1ccc2c(c1)CCN2S(C)(=O)=O -24.6%
Cc1ccc2c(c1)N(C(=O)c1ccc(F)cc1)C(C)(C)CC2(C)c1ccccc1 (configuration not stated) -11.8%
O=C(NCc1ccccc1)c1c2c(nc3ccccc13)C(=O)N(C1CCCCC1)C2 -9.28%
CCc1ccccc1N1C(=O)N(Cc2cc(=O)n3ccccc3n2)c2ccccc2S1(=O)=O -14.7%
Cc1cc2c(OCC(CNC(C)(C)C)OC(=O)c3ccccc3)cccc2[nH]1 (configuration not stated) -12.5%
CCC(C(=O)NCc1ccccc1Cl)n1c(=O)c2cccn2c2ccccc21 (configuration not stated) -4.49%
Cc1cc2oc(C(=O)Nc3sc4c(c3C(=O)NCC3CCCO3)CCCC4)cc(=O)c2cc1C (configuration not stated) -8.44%
COC(=O)c1ccc2c(c1)N(CC(=O)Nc1ccc(C)c(C)c1)C(=O)c1ccccc1S2 -16.7%
CCS(=O)(=O)N1CCc2cc(C(=O)Nc3cc(C)cc(C)c3)ccc21 -26.2%
Cc1ccc(C)c(N2CCN(C(=O)NCc3noc4ccccc34)CC2)c1 -9.6%
COc1ccc(CCNC(=O)c2ccc3[nH]c(C)c(C)c3c2)cc1OC -17.8%
O=S(=O)(NCC(c1ccco1)N1CCN(c2ccc(F)cc2)CC1)c1cc(F)ccc1F (configuration not stated) 5.54%
CCCCN(CC)CCNC(=O)CN1C(=O)COc2ccc(S(=O)(=O)N3CCOCC3)cc21 -4.11%
COc1ccc(OC)c(CCNc2nc3cc(OC)c(OC)cc3c3nc(-c4cccnc4)nn23)c1 3.46%
Cn1c(=O)c2c(-c3ccc(Cl)cc3)ccnc2n(C)c1=O -8.96%
Cc1ccc(C(=O)c2cn(Cc3ccccc3)c3c(F)cc(F)cc3c2=O)cc1 -10.9%
O=C(Nc1ccccc1)c1ccc(Cl)c(S(=O)(=O)Nc2ccccc2)c1 -1.75%
CCS(=O)(=O)N1CCC2(CC1)OC(=O)C(C)=C2C(=O)NCc1ccc(OC)c(OC)c1 -7.63%
CCOc1ccccc1CNC(=O)CN1C(=O)c2cccnc2Oc2ccc(Cl)cc21 -5.04%
COc1ccc(S(=O)(=O)N2CCCCC2)cc1C(=O)NC1CCS(=O)(=O)C1 (configuration not stated) -11.6%
Cn1c(=O)c(=O)n(C)c2cc(N3CCCC3)c(NC(=O)c3ccccc3Cl)cc21 -12.1%
COc1ccc2nc(N(Cc3cccnc3)C(=O)c3ccc(Cl)cc3)sc2c1 -9.74%
COc1ccc(N2CCN(C(=O)c3cn(C)c4ccc(S(=O)(=O)N5CCOCC5)cc4c3=O)CC2)cc1 -16.2%
CCC1Oc2ccccc2N(CC(=O)NCc2ccccc2)C1=O (configuration not stated) -10.1%
Cc1cc(Nc2cccc(Cl)c2)nc2ccc(NC(=O)Cc3c(F)cccc3Cl)cc12 -7.06%
COc1ccc(-c2noc(CC(=O)N(C)c3cc(Cl)c(OC)cc3OC)n2)cc1 -11.8%
CCCCN(C)C(=O)c1ccc2c(c1)NC(=O)C(CC(C)C)N2 (configuration not stated) -0.258%
COc1ccc(OC)c(NC(=O)N2CCC3(CC2)Oc2ccccc2C(=O)N3Cc2ccccc2F)c1 -9.26%
CCN1C(=O)C2(c3ccccc31)c1c(oc3ccccc3c1=O)C(=O)N2CCOC (configuration not stated) -12.9%
CCOc1ccccc1CNC(=O)CN1C(=O)c2cccnc2Oc2ccc(C)cc21 -26.8%
O=C(Nc1ccc(Br)cc1)c1cc(S(=O)(=O)N2CCc3ccccc32)ccc1F -33.7%
CCn1c(=O)c2sccc2n2c(CCCC(=O)Nc3ccc(Oc4ccccc4)cc3)nnc12 -6.06%
NCC(=O)CCC(=O)O -15.4%
Cc1ccc(S(=O)(=O)c2nnn3c2nc(NC2CCCCC2)c2sccc23)cc1C -16%
CN(Cc1ccccc1)c1nc2c(S(=O)(=O)c3ccccc3)nnn2c2ccsc12 -15.9%
Cc1ccc(OCCSc2nc3ccccc3n2CCC(=O)O)cc1 10.3%
Cc1ccc(-c2nc(-c3cccs3)c(-c3cccs3)[nH]2)cc1 -8.88%
Cc1cc(C)cc(OCC(=O)N(Cc2ccco2)Cc2ccccc2Cl)c1 -10.2%
Cc1c(C(=O)Nc2ccccc2F)sc2nc3n(c(=O)c12)CCC3 -20.7%
Cc1ccc(NC(=O)c2nc(S(C)(=O)=O)ncc2N(Cc2ccco2)Cc2ccco2)cc1 -8.85%
CCCCN(CC)CCCNC(=O)c1nn(-c2ccc(OC)cc2)c(=O)c2c1c1ccccc1n2C 1.43%
CNC(=O)C1CCC(Cn2c(=O)c3sccc3n(CC(=O)Nc3ccccc3)c2=O)CC1 (configuration not stated) -4.75%
O=C(Nc1ncc(Cc2ccccc2Cl)s1)c1ccc2c(c1)CC(c1ccccc1)OC2=O (configuration not stated) -6.13%
Cc1ccc(NC(=O)Cn2c(=O)n(CC(=O)NCCc3ccccc3)c(=O)c3ccccc32)cc1 -5.74%
CC1CCc2nc3ncn(Cc4cccc(F)c4)c(=O)c3cc2C1 (configuration not stated) -10.1%
COc1ccc(C)cc1-n1c(SCC(=O)NCc2ccco2)nc2c([nH]c3ccccc32)c1=O 2.67%
COc1ccc(CNC(=O)CCc2c(C)nc3c4cccnc4nn3c2C)cc1 -21.9%
CCc1ccccc1NC(=O)Cn1nnc(C(=O)NCc2cccc(OC)c2)c1N -8.73%
COc1ccc(CC(=O)Nc2nnc3n2CCS3)cc1OC 14.6%
COCCNC(=O)c1cc(-c2cccc(Cl)c2)on1 -15%
Cc1ccc(CCNC(=O)CCCn2c(=O)c3cccn3c3ccc(F)cc32)cc1 -1.71%
CCCCN(CC)CCCNC(=O)c1sc2nc3n(c(=O)c2c1C)CCCCC3 -13.8%
COc1ccc(-n2c(CCC(=O)O)ccc2-c2ccccc2)cc1 -1.92%
CCC(=O)N1CCc2cc(Br)cc(S(=O)(=O)N3CCCC(C(=O)Nc4ccc(CC)cc4)C3)c21 (configuration not stated) 1.13%
CCOC(=O)c1cccc(NC(=O)Cc2ccc(NC(=O)N3CCCCc4ccccc43)cc2)c1 -9.32%
CC(=O)c1cccc(NC(=O)Cn2cnc3c2c(=O)n(C)c(=O)n3C)c1 -19.6%
COc1ccccc1Cn1c(CNS(=O)(=O)c2ccc(Cl)s2)nc2cccnc21 -4.81%
CCOc1ccccc1CNS(=O)(=O)c1cnc(N)nc1 -3.06%
COC(=O)CCc1ccc(OCC(O)CNC(C)C)cc1 (configuration not stated) -5.59%
